From the supplement of paper PMC4967469
IC50 is the fitted dose that halves viability relative to control wells, and lower means more sensitive; fits outside the tested doses are given as limits. The AUC spans the tested range (256-fold, ending at the top dose) of the same fit; the more sensitive the line, the further below 1. For some of these results: A top dose marked as inferred is not printed in the source and was worked back from the curve model.

Tests used:
Assay in all cases: Viability of human cancer cell lines after 72 h of drug (GDSC screen)
I-BET-762 = compound: CCNC(=O)C[C@@H]1N=C(c2ccc(Cl)cc2)c2cc(OC)ccc2-n2c(C)nnc21 [I-BET-762]; conditions: top dose 20 µM; top dose inferred
Protocol: (§1)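 Human cancer cell lines in 384-well plates, medium with 10% serum, drug for 72 h over a 256-fold dose range (nine 2-fold or five 4-fold steps up to the top dose). Adherent lines were fixed and stained with the nucleic acid dye Syto60, suspension lines read with resazurin; signal relative to control wells, capped at 0 and 100%. One two-parameter sigmoid per drug and line, fitted in a mixed model over all curves with the slope shared within a line.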

AV-951 = compound: COc1cc2nccc(Oc3ccc(NC(=O)Nc4cc(C)on4)c(Cl)c3)c2cc1OC [AV-951]; conditions: top dose 0.128 µM; top dose inferred
Protocol: as §1

MS-275 = compound: Nc1ccccc1NC(=O)c1ccc(CNC(=O)OCc2cccnc2)cc1 [MS-275]; conditions: top dose 5 µM; top dose inferred
Protocol: as §1

PF-4708671 = compound: CCc1cncnc1N1CCN(Cc2nc3ccc(C(F)(F)F)cc3[nH]2)CC1 [PF-4708671]; conditions: top dose 10 µM; top dose inferred
Protocol: as §1

Trametinib = compound: CC(=O)Nc1cccc(-n2c(=O)n(C3CC3)c(=O)c3c(Nc4ccc(I)cc4F)n(C)c(=O)c(C)c32)c1 [Trametinib]; conditions: top dose 1 µM
Protocol: as §1

HG-6-64-1 = compound: CCN1CCN(Cc2ccc(NC(=O)c3ccc(C)c(/C=C/c4cnc5[nH]ccc5c4OC)c3)cc2C(F)(F)F)CC1 [HG-6-64-1]; conditions: top dose 5.12 µM; top dose inferred
Protocol: as §1

KIN001-244 = compound: O=C(NC(COc1ccc2[nH]c(=O)[nH]c2c1)c1ccccc1)c1cccn(Cc2ccc(F)c(F)c2)c1=O [KIN001-244]; conditions: top dose 20 µM; top dose inferred
Protocol: as §1

Cell Line	AUC (I-BET-762)	IC50 (I-BET-762)	AUC (AV-951)	IC50 (AV-951)	AUC (MS-275)	IC50 (MS-275)	AUC (PF-4708671)	IC50 (PF-4708671)	AUC (Trametinib)	IC50 (Trametinib)	AUC (HG-6-64-1)	IC50 (HG-6-64-1)	AUC (KIN001-244)	IC50 (KIN001-244)
NB14 (neuroblastoma, adherent)	0.929	> 20 µM	0.986	> 0.128 µM	0.641	0.749 µM	0.947	> 10 µM	0.815	0.509 µM	0.914	> 5.12 µM	0.747	6.09 µM
NB(TU)1-10 (neuroblastoma, adherent)	0.638	2.84 µM	0.993	> 0.128 µM	0.696	1.02 µM	0.956	> 10 µM	0.991	> 1 µM	0.663	0.848 µM	0.85	12.1 µM
NB-4 (acute myeloid leukaemia, suspension)	0.23	0.249 µM	0.987	> 0.128 µM	0.437	0.217 µM	0.991	> 10 µM	0.079	< 0.00391 µM	0.766	1.57 µM	0.692	3.83 µM
NCI-H23 (lung adenocarcinoma, adherent)	0.903	> 20 µM	0.981	> 0.128 µM	0.88	> 5 µM	0.98	> 10 µM	0.587	0.108 µM	0.987	> 5.12 µM	0.942	> 20 µM
NCI-H69 (small cell lung carcinoma, suspension)	0.985	> 20 µM	0.966	> 0.128 µM	0.558	0.46 µM	0.973	> 10 µM	0.977	> 1 µM	0.939	> 5.12 µM	0.944	> 20 µM
NCI-H82 (small cell lung carcinoma, suspension)	0.968	> 20 µM	0.986	> 0.128 µM	0.76	1.67 µM	0.983	> 10 µM	0.981	> 1 µM	0.99	> 5.12 µM	0.958	> 20 µM
NCI-H187 (small cell lung carcinoma, suspension)	0.944	> 20 µM	0.969	> 0.128 µM	0.574	0.507 µM	0.95	> 10 µM	0.987	> 1 µM	0.988	> 5.12 µM	0.859	19 µM
NCI-H209 (small cell lung carcinoma, suspension)	0.947	> 20 µM	0.944	> 0.128 µM	0.548	0.426 µM	0.959	> 10 µM	0.91	> 1 µM	0.875	> 5.12 µM	0.85	16.9 µM
NCI-H211 (small cell lung carcinoma, adherent)	0.691	4.2 µM	0.979	> 0.128 µM	0.573	0.491 µM	0.933	> 10 µM	0.932	> 1 µM	0.845	3.56 µM	0.797	9.14 µM
NCI-H226 (lung squamous cell carcinoma, adherent)	0.911	> 20 µM	0.984	> 0.128 µM	0.979	> 5 µM	0.956	> 10 µM	0.877	> 1 µM	0.873	> 5.12 µM	0.885	> 20 µM
NCI-H322M (lung adenocarcinoma, suspension)	0.976	> 20 µM	0.987	> 0.128 µM	0.965	> 5 µM	0.986	> 10 µM	0.948	> 1 µM	0.918	> 5.12 µM	0.96	> 20 µM
NCI-H345 (small cell lung carcinoma, suspension)	0.974	> 20 µM	0.99	> 0.128 µM	0.772	2.04 µM	0.982	> 10 µM	0.985	> 1 µM	0.92	> 5.12 µM	0.965	> 20 µM
NCI-H446 (small cell lung carcinoma, semi-adherent)	0.707	5.02 µM	0.984	> 0.128 µM	0.717	1.35 µM	0.985	> 10 µM	0.984	> 1 µM	0.931	> 5.12 µM	0.799	10.4 µM
NCI-H524 (small cell lung carcinoma, suspension)	0.989	> 20 µM	0.99	> 0.128 µM	0.582	0.509 µM	0.985	> 10 µM	0.99	> 1 µM	0.978	> 5.12 µM	0.991	> 20 µM
NCI-H716 (large intestine, suspension)	0.884	> 20 µM	0.904	> 0.128 µM	0.92	> 5 µM	0.954	> 10 µM	0.373	0.0255 µM	0.774	2.56 µM	0.865	> 20 µM
NCI-H720 (lung carcinoid, suspension)	0.98	> 20 µM	0.99	> 0.128 µM	0.792	2.05 µM	0.992	> 10 µM	0.985	> 1 µM	0.992	> 5.12 µM	0.985	> 20 µM
NCI-H747 (large intestine, adherent)	0.864	> 20 µM	0.981	> 0.128 µM	0.785	2.67 µM	0.97	> 10 µM	0.158	0.00417 µM	0.713	1.49 µM	0.873	> 20 µM
